# Test results published in patent US20190359693A1.
# Experiments:
# Assay in all cases: cell-based or functional assay
# [1] = molecular target: hemagglutinin (HA) of influenza virus B/Florida/04/06 (Yamagata) (influenza B virus)
# [2] = molecular target: hemagglutinin (HA) of influenza virus H3N2 A/Wisconsin/67/05 (influenza A virus)
# [3] = molecular target: hemagglutinin (HA) of influenza virus H1N1 A/New Caledonia/20/99 (influenza A virus)
# [4] = molecular target: hemagglutinin (HA) of influenza virus H3N2 A/Brisbane/10/07 (influenza A virus)
# [5] = molecular target: hemagglutinin (HA) of influenza A/Wisconsin/67/05 (H3N2) (influenza A virus)
# [6] = molecular target: hemagglutinin (HA) of influenza B/Harbin/7/94 (Yamagata) (influenza B virus)
# [7] = molecular target: hemagglutinin (HA) of influenza A/Anhui/1/13 (H7N9) (influenza A virus)
# [8] = molecular target: hemagglutinin (HA) of influenza B/Malaysia/2506/04 (Victoria) (influenza B virus)
# [9] = molecular target: hemagglutinin (HA) of influenza A/Shanghai/2/13 (H7N9) (influenza A virus)
# [10] = molecular target: hemagglutinin (HA) of influenza A/California/07/09 (H1N1) (influenza A virus)
# [11] = molecular target: hemagglutinin (HA) of influenza A/New Caledonia/20/99 (H1N1) (influenza A virus)
# [12] = molecular target: hemagglutinin (HA) of influenza A/WF/HK/MPA892/06 (H4) (influenza A virus)
# [13] = molecular target: hemagglutinin (HA) of influenza B/Florida/04/06 (Yamagata) (influenza B virus)
# [14] = molecular target: hemagglutinin (HA) of influenza A/Vietnam/1194/04 (H5N1) (influenza A virus)
Binder,average neutralization titer [1] [nM],average neutralization titer [2] [nM],average neutralization titer [3] [nM],average neutralization titer [4] [nM],Average neutralization titers [5] [nM],Average neutralization titers [6] [nM],Average neutralization titers [7] [nM],Average neutralization titers [8] [nM],Average neutralization titers [9] [nM],Average neutralization titers [10] [nM],Average neutralization titers [11] [nM],Average neutralization titers [12] [nM],Average neutralization titers [13] [nM],Average neutralization titers [14] [nM]
MD2616 (Fc fusion) EVQLVESGGGLVQPGGSLRLSCAATGFTLENKAIGWFRQTPGSEREGVLCISKSGSWTYYTDSMRGRFTISRDNAENTVYLQMDSLKPEDTAVYYCATTTAGGGLCWDGTTFSRLASSWGQGTQVTVSSAAA[gap - human IgG1 Fc]GGGGSGGGGSEVQLVESGGGLVQPGGSLRLSCAVSISIFDIYAMDWYRQAPGKQRDLVATSFRDGSTNYADSVKGRFTISRDNAKNTLYLQMNSLKPEDTAVYLCHVSLYRDPLGVAGGMGVYWGKGALVTVSS,233,932,20.6,932,–,–,–,–,–,–,–,–,–,–
MD2618 (Fc fusion) EVQLVESGGGLVQPGGSLKLSCAASGFTFSTSWMYWLRQAPGKGLEWVSVINTDGGTYYADSVKDRFTISRDNAKDTLYLQMSSLKSEDTAVYYCAKDWGGPEPTRGQGTQVTVSSAAA[gap - human IgG1 Fc]GGGGSGGGGSEVQLVESGGGLVQPGGSLRLSCAVSISIFDIYAMDWYRQAPGKQRDLVATSFRDGSTNYADSVKGRFTISRDNAKNTLYLQMNSLKPEDTAVYLCHVSLYRDPLGVAGGMGVYWGKGALVTVSS,0.8,> 1000,–,> 1000,–,–,–,–,–,–,–,–,–,–
MD2619 (Fc fusion) EVQLVESGGGLVQPGGSLRLSCAATGFTLENKAIGWFRQTPGSEREGVLCISKSGSWTYYTDSMRGRFTISRDNAENTVYLQMDSLKPEDTAVYYCATTTAGGGLCWDGTTFSRLASSWGQGTQVTVSSGGGGSGGGGSEVQLVESGGGLVQPGGSLRLSCAVSISIFDIYAMDWYRQAPGKQRDLVATSFRDGSTNYADSVKGRFTISRDNAKNTLYLQMNSLKPEDTAVYLCHVSLYRDPLGVAGGMGVYWGKGALVTVSSGGGGSGGGGSEVQLVESGGGLVQAGGSLKLSCAASGRTYAMGWFRQAPGKEREFVAHINALGTRTYYSDSVKGRFTISRDNAKNTEYLEMNNLKPEDTAVYYCTAQGQWRAAPVAVAAEYEFWGQGTQVTVSSAAA[gap - human IgG1 Fc],261,45.9,26.2,32.7,–,–,–,–,–,–,–,–,–,–
MD2620 (Fc fusion) EVQLVESGGGLVQPGGSLRLSCAVSISIFDIYAMDWYRQAPGKQRDLVATSFRDGSTNYADSVKGRFTISRDNAKNTLYLQMNSLKPEDTAVYLCHVSLYRDPLGVAGGMGVYWGKGALVTVSSGGGGSGGGGSEVQLVESGGGLVQPGGSLRLSCAATGFTLENKAIGWFRQTPGSEREGVLCISKSGSWTYYTDSMRGRFTISRDNAENTVYLQMDSLKPEDTAVYYCATTTAGGGLCWDGTTFSRLASSWGQGTQVTVSSGGGGSGGGGSEVQLVESGGGLVQAGGSLKLSCAASGRTYAMGWFRQAPGKEREFVAHINALGTRTYYSDSVKGRFTISRDNAKNTEYLEMNNLKPEDTAVYYCTAQGQWRAAPVAVAAEYEFWGQGTQVTVSSAAA[gap - human IgG1 Fc],261,30,15.5,23.1,–,–,–,–,–,–,–,–,–,–
MD2621 (Fc fusion) EVQLVESGGGLVQPGGSLRLSCAVSISIFDIYAMDWYRQAPGKQRDLVATSFRDGSTNYADSVKGRFTISRDNAKNTLYLQMNSLKPEDTAVYLCHVSLYRDPLGVAGGMGVYWGKGALVTVSSGGGGSGGGGSEVQLVESGGGLVQAGGSLKLSCAASGRTYAMGWFRQAPGKEREFVAHINALGTRTYYSDSVKGRFTISRDNAKNTEYLEMNNLKPEDTAVYYCTAQGQWRAAPVAVAAEYEFWGQGTQVTVSSGGGGSGGGGSEVQLVESGGGLVQPGGSLRLSCAATGFTLENKAIGWFRQTPGSEREGVLCISKSGSWTYYTDSMRGRFTISRDNAENTVYLQMDSLKPEDTAVYYCATTTAGGGLCWDGTTFSRLASSWGQGTQVTVSSAAA[gap - human IgG1 Fc],739,26.6,13.1,9.7,–,–,–,–,–,–,–,–,–,–
MD2641 (Fc fusion) EVQLVESGGGLVQPGGSLRLSCAATGFTLENKAIGWFRQTPGSEREGVLCISKSGSWTYYTDSMRGRFTISRDNAENTVYLQMDSLKPEDTAVYYCATTTAGGGLCWDGTTFSRLASSWGQGTQVTVSSGGGGSGGGGSEVQLVESGGGLVQPGGSLKLSCAASGFTFSTSWMYWLRQAPGKGLEWVSVINTDGGTYYADSVKDRFTISRDNAKDTLYLQMSSLKSEDTAVYYCAKDWGGPEPTRGQGTQVTVSS[gap - human IgG1 Fc]GGGGSGGGGSEVQLVESGGGLVQPGGSLRLSCAVSISIFDIYAMDWYRQAPGKQRDLVATSFRDGSTNYADSVKGRFTISRDNAKNTLYLQMNSLKPEDTAVYLCHVSLYRDPLGVAGGMGVYWGKGALVTVSSGGGGSGGGGSEVQLVESGGGLVQAGGSLKLSCAASGRTYAMGWFRQAPGKEREFVAHINALGTRTYYSDSVKGRFTISRDNAKNTEYLEMNNLKPEDTAVYYCTAQGQWRAAPVAVAAEYEFWGQGTQVTVSS,–,–,–,–,15.5,1.2,26.7,5.5,17.4,2.1,9.2,2.4,1.7,13
MD2647 (Fc fusion) chain 1: EVQLVESGGGLVQPGGSLRLSCAVSISIFDIYAMDWYRQAPGKQRDLVATSFRDGSTNYADSVKGRFTISRDNAKNTLYLQMNSLKPEDTAVYLCHVSLYRDPLGVAGGMGVYWGKGALVTVSS[gap - human IgG1 Fc with K409R (EU numbers)]GGGGSGGGGSEVQLVESGGGLVQPGGSLRLSCAATGFTLENKAIGWFRQTPGSEREGVLCISKSGSWTYYTDSMRGRFTISRDNAENTVYLQMDSLKPEDTAVYYCATTTAGGGLCWDGTTFSRLASSWGQGTQVTVSS chain 2: EVQLVESGGGLVQAGGSLKLSCAASGRTYAMGWFRQAPGKEREFVAHINALGTRTYYSDSVKGRFTISRDNAKNTEYLEMNNLKPEDTAVYYCTAQGQWRAAPVAVAAEYEFWGQGTQVTVSSGGGGSGGGGSEVQLVESGGGLVQPGGSLRLSCAVSISIFDIYAMDWYRQAPGKQRDLVATSFRDGSTNYADSVKGRFTISRDNAKNTLYLQMNSLKPEDTAVYLCHVSLYRDPLGVAGGMGVYWGKGALVTVSS[gap - human IgG1 Fc with changes]GGGGSGGGGSEVQLVESGGGLVQPGGSLKLSCAASGFTFSTSWMYWLRQAPGKGLEWVSVINTDGGTYYADSVKDRFTISRDNAKDTLYLQMSSLKSEDTAVYYCAKDWGGPEPTRGQGTQVTVSS,–,–,–,–,83.6,35.2,–,29.6,–,2,12.4,2.8,22.2,14.8
MD2612 (Fc fusion) EVQLVESGGGLVQPGGSLRLSCAATGFTLENKAIGWFRQTPGSEREGVLCISKSGSWTYYTDSMRGRFTISRDNAENTVYLQMDSLKPEDTAVYYCATTTAGGGLCWDGTTFSRLASSWGQGTQVTVSSGGGGSGGGGSEVQLVESGGGLVQPGGSLRLSCAVSISIFDIYAMDWYRQAPGKQRDLVATSFRDGSTNYADSVKGRFTISRDNAKNTLYLQMNSLKPEDTAVYLCHVSLYRDPLGVAGGMGVYWGKGALVTVSSAAA[gap - human IgG1 Fc],330,> 1000,49,277,–,–,–,–,–,–,–,–,–,–
MD2613 (Fc fusion) EVQLVESGGGLVQPGGSLKLSCAASGFTFSTSWMYWLRQAPGKGLEWVSVINTDGGTYYADSVKDRFTISRDNAKDTLYLQMSSLKSEDTAVYYCAKDWGGPEPTRGQGTQVTVSSGGGGSGGGGSEVQLVESGGGLVQPGGSLRLSCAVSISIFDIYAMDWYRQAPGKQRDLVATSFRDGSTNYADSVKGRFTISRDNAKNTLYLQMNSLKPEDTAVYLCHVSLYRDPLGVAGGMGVYWGKGALVTVSSAAA[gap - human IgG1 Fc],0.6,> 1000,42.2,142,–,–,–,–,–,–,–,–,–,–
MD2614 (Fc fusion) EVQLVESGGGLVQPGGSLRLSCAVSISIFDIYAMDWYRQAPGKQRDLVATSFRDGSTNYADSVKGRFTISRDNAKNTLYLQMNSLKPEDTAVYLCHVSLYRDPLGVAGGMGVYWGKGALVTVSSGGGGSGGGGSEVQLVESGGGLVQPGGSLKLSCAASGFTFSTSWMYWLRQAPGKGLEWVSVINTDGGTYYADSVKDRFTISRDNAKDTLYLQMSSLKSEDTAVYYCAKDWGGPEPTRGQGTQVTVSSAAA[gap - human IgG1 Fc],11.9,285,21.1,142,–,–,–,–,–,–,–,–,–,–
